According to ChEMBL document CHEMBL5291721, “A preclinical secondary pharmacology resource illuminates target-adverse drug reaction associations of marketed drugs” (Nat Commun, 2023):

Key:
Bile salt export pump = Bile salt export pump (Homo sapiens, UniProt O95342); type: functional
Acetylcholinesterase = Acetylcholinesterase (Homo sapiens, UniProt P22303); type: functional
Adenosine receptor A3 = Adenosine receptor A3 (Homo sapiens, UniProt P0DMS8)
[1] = target: T1, Alpha-2A adrenergic receptor (Homo sapiens, UniProt P08913); type: functional, cell-based
T1 sequence (P08913 whole entry): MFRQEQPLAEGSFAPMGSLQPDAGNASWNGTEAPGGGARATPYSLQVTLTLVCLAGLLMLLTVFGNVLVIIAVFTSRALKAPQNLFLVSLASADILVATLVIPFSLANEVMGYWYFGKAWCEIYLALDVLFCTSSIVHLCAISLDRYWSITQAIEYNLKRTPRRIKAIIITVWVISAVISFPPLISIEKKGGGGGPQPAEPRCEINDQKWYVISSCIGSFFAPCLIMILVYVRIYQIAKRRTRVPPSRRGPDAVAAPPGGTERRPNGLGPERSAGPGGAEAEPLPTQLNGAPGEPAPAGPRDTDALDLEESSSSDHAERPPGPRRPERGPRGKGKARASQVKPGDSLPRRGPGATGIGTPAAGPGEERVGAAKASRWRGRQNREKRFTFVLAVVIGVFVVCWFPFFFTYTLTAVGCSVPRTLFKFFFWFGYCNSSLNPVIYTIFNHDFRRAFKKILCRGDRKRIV

[2] = target: T1, Alpha-2A adrenergic receptor; type: functional, cell-based; remark: listed apart in the source
[3] = target: T1, Alpha-2A adrenergic receptor
[4] = target: Beta-2 adrenergic receptor (Homo sapiens, UniProt P07550)
[5] = target: Type-1 angiotensin II receptor (Homo sapiens, UniProt P30556)
Vasopressin V1a receptor = Vasopressin V1a receptor (Homo sapiens, UniProt P37288)
Vasopressin V1a receptor, sequence (P37288 whole entry): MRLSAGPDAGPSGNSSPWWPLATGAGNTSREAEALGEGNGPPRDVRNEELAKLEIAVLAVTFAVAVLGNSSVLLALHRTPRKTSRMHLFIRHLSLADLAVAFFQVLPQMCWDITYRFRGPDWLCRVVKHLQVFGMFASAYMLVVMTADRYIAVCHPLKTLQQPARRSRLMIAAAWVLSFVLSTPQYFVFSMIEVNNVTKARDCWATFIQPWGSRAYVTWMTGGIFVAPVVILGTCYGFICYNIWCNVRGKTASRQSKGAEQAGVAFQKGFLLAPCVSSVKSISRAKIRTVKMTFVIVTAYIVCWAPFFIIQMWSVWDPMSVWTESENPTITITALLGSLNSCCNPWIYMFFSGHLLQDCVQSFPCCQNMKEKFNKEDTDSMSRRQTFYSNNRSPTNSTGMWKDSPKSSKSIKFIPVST

Vasopressin V2 receptor = Vasopressin V2 receptor (Homo sapiens, UniProt P30518)
B2 bradykinin receptor = B2 bradykinin receptor (Homo sapiens, UniProt P30411)
[6] = target: Gastrin/cholecystokinin type B receptor (Homo sapiens, UniProt P32239)
[7] = target: T2, Muscarinic acetylcholine receptor M2 (Homo sapiens, UniProt P08172); type: functional, cell-based
T2 sequence (P08172 whole entry): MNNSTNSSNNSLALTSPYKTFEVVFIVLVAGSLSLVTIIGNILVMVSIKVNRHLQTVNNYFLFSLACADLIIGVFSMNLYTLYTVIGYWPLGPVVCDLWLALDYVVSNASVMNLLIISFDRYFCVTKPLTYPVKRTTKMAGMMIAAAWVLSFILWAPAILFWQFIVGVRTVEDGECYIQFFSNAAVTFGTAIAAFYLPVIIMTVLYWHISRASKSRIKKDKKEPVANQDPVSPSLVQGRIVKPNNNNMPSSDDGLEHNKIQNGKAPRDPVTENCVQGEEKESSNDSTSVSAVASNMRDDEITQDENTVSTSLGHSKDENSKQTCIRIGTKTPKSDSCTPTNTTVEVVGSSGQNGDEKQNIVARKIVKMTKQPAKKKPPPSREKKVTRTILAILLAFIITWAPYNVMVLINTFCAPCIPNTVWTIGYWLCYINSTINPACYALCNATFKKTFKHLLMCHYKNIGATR

[8] = target: T2, Muscarinic acetylcholine receptor M2
[9] = target: Growth hormone secretagogue receptor type 1 (Homo sapiens, UniProt Q92847)
Growth hormone secretagogue receptor type 1, sequence (Q92847 whole entry): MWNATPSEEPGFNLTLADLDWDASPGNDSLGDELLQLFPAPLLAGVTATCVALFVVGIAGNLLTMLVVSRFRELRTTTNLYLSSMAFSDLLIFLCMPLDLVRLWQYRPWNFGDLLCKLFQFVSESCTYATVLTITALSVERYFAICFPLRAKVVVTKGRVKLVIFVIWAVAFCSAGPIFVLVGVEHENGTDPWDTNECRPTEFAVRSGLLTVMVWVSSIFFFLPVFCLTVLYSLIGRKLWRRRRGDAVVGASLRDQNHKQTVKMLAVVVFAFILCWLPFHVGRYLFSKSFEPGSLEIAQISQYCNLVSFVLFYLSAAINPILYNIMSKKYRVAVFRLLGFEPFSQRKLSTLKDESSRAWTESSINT

Melanocortin receptor 3 = Melanocortin receptor 3 (Homo sapiens, UniProt P41968)
Melanocortin receptor 3, sequence (P41968 whole entry): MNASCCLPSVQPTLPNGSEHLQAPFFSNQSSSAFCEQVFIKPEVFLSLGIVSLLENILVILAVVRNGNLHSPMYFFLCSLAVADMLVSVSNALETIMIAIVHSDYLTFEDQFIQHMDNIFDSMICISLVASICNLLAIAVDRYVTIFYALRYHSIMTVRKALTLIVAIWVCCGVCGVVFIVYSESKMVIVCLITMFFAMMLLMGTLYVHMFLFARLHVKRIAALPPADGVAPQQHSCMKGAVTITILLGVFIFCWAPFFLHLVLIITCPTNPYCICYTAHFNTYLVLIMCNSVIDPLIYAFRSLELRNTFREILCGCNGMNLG

Motilin receptor = Motilin receptor (Homo sapiens, UniProt O43193)
[10] = target: Neuropeptide Y receptor type 1 (Homo sapiens, UniProt P25929)
Glucocorticoid receptor = Glucocorticoid receptor (Homo sapiens, UniProt P04150)
Glucocorticoid receptor, sequence (P04150 whole entry): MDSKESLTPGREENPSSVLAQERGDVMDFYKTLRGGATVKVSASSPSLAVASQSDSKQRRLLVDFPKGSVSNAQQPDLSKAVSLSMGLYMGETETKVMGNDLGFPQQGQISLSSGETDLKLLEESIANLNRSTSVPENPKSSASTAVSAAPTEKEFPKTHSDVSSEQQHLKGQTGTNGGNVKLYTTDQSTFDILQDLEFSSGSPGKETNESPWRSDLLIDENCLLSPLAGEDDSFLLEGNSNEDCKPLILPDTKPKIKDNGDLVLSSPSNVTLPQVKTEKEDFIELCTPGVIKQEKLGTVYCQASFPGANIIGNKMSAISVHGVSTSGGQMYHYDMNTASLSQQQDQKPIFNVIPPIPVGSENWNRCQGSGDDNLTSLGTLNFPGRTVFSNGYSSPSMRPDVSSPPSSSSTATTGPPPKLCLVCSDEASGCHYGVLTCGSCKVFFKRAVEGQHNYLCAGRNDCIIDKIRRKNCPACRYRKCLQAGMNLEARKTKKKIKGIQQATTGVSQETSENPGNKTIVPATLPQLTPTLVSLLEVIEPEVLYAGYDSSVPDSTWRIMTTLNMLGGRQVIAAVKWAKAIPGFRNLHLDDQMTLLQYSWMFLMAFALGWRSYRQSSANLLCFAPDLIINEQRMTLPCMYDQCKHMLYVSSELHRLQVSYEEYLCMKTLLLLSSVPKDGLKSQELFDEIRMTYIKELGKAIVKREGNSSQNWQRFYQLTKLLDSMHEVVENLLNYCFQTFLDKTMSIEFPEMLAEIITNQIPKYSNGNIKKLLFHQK

[11] = target: 3',5'-cyclic-AMP phosphodiesterase 4A (Homo sapiens, UniProt P27815); type: functional
[12] = target: 3',5'-cyclic-AMP phosphodiesterase 4D (Homo sapiens, UniProt Q08499); type: functional
[13] = target: Synaptic vesicular amine transporter (Rattus norvegicus, UniProt Q01827); type: functional
Synaptic vesicular amine transporter, sequence (Q01827 whole entry): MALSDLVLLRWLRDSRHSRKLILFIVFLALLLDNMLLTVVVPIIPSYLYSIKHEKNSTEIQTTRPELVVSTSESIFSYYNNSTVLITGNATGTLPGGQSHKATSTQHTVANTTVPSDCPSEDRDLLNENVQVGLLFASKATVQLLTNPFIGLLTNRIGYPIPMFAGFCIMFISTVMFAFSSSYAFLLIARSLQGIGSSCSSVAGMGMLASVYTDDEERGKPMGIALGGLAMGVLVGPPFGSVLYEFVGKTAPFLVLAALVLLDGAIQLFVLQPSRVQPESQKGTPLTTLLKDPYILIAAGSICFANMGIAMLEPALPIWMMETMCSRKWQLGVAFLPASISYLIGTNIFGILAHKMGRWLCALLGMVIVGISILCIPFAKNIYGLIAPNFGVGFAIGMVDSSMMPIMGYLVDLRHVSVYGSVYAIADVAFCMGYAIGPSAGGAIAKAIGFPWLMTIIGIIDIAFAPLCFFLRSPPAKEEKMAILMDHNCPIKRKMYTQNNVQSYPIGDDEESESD

Thromboxane A2 receptor [14] = target: T3, Thromboxane A2 receptor (Homo sapiens, UniProt P21731); type: functional, cell-based
T3 sequence (P21731 whole entry): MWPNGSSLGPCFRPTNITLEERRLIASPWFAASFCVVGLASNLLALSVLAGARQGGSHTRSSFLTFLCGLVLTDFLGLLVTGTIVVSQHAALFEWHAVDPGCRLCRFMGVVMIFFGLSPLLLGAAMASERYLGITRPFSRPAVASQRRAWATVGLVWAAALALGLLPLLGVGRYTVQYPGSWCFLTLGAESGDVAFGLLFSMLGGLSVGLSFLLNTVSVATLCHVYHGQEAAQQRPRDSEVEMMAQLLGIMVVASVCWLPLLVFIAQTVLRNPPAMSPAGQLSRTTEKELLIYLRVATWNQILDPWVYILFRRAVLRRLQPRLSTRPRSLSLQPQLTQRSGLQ

Thromboxane A2 receptor [15] = target: T3, Thromboxane A2 receptor; type: functional, cell-based; remark: listed apart in the source
Thromboxane A2 receptor [16] = target: T3, Thromboxane A2 receptor
[17] = target: Glutamate receptor ionotropic, NMDA 1 (Rattus norvegicus, UniProt P35439)
[18] = target: Kappa-type opioid receptor (Homo sapiens, UniProt P41145)
Progesterone receptor = Progesterone receptor (Homo sapiens, UniProt P06401); type: functional
Progesterone receptor, sequence (P06401 whole entry): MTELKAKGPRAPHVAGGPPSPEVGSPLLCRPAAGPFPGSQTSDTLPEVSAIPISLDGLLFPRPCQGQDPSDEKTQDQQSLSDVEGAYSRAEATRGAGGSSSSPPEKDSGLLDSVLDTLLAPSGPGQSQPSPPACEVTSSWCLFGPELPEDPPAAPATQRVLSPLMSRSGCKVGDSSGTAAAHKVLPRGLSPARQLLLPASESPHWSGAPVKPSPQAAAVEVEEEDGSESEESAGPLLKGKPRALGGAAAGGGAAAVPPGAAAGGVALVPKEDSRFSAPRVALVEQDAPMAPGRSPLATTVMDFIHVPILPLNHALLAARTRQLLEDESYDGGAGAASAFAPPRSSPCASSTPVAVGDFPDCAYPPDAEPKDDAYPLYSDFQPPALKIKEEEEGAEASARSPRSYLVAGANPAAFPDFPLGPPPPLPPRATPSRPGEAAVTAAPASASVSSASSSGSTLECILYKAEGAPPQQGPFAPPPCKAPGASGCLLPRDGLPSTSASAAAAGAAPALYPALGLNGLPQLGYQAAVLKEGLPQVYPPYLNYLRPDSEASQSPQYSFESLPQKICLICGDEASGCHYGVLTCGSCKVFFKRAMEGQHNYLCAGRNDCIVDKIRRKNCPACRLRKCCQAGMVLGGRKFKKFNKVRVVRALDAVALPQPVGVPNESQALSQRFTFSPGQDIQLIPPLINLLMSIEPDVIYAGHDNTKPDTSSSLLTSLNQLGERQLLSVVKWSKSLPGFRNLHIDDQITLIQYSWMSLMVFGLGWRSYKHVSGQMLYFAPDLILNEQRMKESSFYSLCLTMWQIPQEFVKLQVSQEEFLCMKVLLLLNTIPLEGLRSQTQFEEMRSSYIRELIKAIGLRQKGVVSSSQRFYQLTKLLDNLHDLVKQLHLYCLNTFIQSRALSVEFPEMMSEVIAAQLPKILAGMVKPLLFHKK

Mu-type opioid receptor = Mu-type opioid receptor (Homo sapiens, UniProt P35372)
Mu-type opioid receptor, sequence (P35372 whole entry): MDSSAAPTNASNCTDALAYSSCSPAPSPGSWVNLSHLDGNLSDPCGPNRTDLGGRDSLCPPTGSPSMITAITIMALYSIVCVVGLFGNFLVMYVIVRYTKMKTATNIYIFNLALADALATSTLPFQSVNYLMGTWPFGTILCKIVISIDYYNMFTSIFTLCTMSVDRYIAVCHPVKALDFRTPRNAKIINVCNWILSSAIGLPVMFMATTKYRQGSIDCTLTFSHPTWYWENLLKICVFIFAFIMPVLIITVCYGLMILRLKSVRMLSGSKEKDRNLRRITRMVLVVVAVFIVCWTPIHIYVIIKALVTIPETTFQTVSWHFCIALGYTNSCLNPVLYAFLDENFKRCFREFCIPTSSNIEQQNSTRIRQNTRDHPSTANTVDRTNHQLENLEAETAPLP
Further: assay procedure not described here.

Acetylcholinesterase, sequence (P22303 whole entry): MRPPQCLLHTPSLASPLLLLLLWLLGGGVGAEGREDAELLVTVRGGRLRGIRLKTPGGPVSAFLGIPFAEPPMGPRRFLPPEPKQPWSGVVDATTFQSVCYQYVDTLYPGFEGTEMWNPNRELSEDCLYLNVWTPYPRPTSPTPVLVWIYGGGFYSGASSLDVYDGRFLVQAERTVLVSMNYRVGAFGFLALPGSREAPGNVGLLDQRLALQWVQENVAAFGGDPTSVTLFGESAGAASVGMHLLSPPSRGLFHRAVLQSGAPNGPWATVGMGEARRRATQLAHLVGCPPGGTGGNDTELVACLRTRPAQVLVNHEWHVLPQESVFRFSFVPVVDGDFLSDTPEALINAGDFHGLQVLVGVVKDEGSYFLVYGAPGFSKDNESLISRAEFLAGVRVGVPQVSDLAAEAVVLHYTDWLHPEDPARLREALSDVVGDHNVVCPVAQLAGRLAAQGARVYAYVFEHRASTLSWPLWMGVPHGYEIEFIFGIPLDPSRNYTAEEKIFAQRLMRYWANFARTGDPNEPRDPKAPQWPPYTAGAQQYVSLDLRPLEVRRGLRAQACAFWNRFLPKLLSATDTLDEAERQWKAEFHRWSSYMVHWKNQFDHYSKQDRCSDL

CC(C)(C)CC(C)(C)c1ccc(OCCOCC[N+](C)(C)Cc2ccccc2)cc1 [BENZETHONIUM]
AC50 (Bile salt export pump): 29 µM
AC50 (Acetylcholinesterase): 2.33 µM
AC50 (Adenosine receptor A3): 3.9 µM
AC50 [1]: > 10 µM
AC50 [2]: 11 µM
AC50 [3]: 10.6 µM
AC50 [4]: 27 µM
AC50 [5]: 25 µM
AC50 (Vasopressin V1a receptor): 15 µM
AC50 (Vasopressin V2 receptor): 14 µM
AC50 (B2 bradykinin receptor): 30 µM
AC50 [6]: > 10 µM
AC50 [7]: 18 µM
AC50 [8]: 1.1 µM
AC50 [9]: 6.4 µM
AC50 (Melanocortin receptor 3): 7.5 µM
AC50 (Motilin receptor): 2.7 µM
AC50 [10]: 15 µM
AC50 (Glucocorticoid receptor): 14 µM
AC50 [11]: 14.3 µM
AC50 [12]: 29 µM
AC50 [13]: 0.18 µM
AC50 (Thromboxane A2 receptor [14]): > 10 µM
AC50 (Thromboxane A2 receptor [15]): > 3 µM
AC50 (Thromboxane A2 receptor [16]): > 10 µM

CN(C)CCCN1c2ccccc2CCc2ccc(Cl)cc21 [CLOMIPRAMINE]
AC50 [17]: > 10 µM

Clc1ccc(COC(Cn2ccnc2)c2ccc(Cl)cc2Cl)cc1 (stereo not given) [ECONAZOLE]
AC50 (Glucocorticoid receptor): 10.9 µM
AC50 [18]: 2.33 µM
AC50 (Progesterone receptor): 11.7 µM

CCC1(c2cccc(O)c2)CCCCN(C)C1 (stereo not given) [MEPTAZINOL]
AC50 (Mu-type opioid receptor): 0.0826 µM
